The whole screen tested about 310,000 compounds, of which about 2,200 (0.71%) showed an effect of 50% or more. Effects have a minus sign here. This is one part of the list.
target: human ether-à-go-go-related gene (hERG) potassium channel (human, UniProt Q12809); assay: primary screen, population patch clamp on CHO cells stably expressing hERG
Sequence (Q12809 whole entry, looked up): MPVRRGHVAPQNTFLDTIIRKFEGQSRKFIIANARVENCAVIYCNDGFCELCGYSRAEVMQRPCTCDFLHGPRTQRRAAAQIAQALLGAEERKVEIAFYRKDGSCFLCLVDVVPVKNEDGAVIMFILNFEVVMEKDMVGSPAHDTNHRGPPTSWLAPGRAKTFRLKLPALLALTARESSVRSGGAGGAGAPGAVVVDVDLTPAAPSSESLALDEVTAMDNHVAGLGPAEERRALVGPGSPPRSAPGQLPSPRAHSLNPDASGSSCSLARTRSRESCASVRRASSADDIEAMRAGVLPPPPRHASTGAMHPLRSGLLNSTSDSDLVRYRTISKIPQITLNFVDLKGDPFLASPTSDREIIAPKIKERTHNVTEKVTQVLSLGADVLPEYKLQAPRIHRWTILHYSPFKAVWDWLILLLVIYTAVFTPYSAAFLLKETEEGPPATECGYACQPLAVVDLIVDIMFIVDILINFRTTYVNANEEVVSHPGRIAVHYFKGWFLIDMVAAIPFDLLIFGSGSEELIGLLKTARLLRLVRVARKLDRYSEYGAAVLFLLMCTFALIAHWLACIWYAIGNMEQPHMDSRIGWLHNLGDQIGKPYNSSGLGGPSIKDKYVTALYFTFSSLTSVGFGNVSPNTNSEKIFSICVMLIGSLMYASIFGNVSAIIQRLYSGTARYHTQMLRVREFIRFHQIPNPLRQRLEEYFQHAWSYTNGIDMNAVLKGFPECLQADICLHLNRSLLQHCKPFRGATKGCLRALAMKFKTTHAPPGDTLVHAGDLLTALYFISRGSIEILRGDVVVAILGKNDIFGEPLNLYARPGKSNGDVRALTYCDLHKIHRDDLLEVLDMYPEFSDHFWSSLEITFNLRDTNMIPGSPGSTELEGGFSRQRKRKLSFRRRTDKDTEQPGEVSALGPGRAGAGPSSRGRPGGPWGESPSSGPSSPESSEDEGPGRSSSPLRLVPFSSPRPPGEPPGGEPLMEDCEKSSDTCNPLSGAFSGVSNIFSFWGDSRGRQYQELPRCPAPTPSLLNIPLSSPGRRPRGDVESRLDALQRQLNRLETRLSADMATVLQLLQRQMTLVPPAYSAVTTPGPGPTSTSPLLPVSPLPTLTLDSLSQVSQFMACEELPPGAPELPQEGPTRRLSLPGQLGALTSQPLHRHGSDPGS

| SMILES | hERG current change (%, negative = inhibition) at 1uM |
| --- | --- |
| Cc1ccc(C)c(OCC(=O)Nc2c[nH]c(=O)[nH]c2=O)c1 | 18.4% |
| Cc1cc(SCC(=O)Nc2ccccc2C)nc(C)n1 | 5.15% |
| Cc1c(NC(=S)NC(=O)CCc2ccccc2)c(=O)n(-c2ccccc2)n1C | 8.36% |
| Cc1cc(C)n(-c2ccc(C(=O)Nc3ccc(S(=O)(=O)NCc4ccco4)cc3)cc2)n1 | 2.49% |
| Cc1ccccc1OCC(=O)Nc1ccc(S(=O)(=O)N2CCCC2)cc1 | 0.97% |
| Cc1ccc(OCc2ccc(C(=O)Nc3nc4ccccc4n3Cc3ccccc3)o2)c([N+](=O)[O-])c1 | 11.7% |
| CS(=O)(=O)N1N=C(c2ccco2)CC1c1ccc(Br)cc1 (stereo not shown) | -0.59% |
| Cc1cc(C)nc(NS(=O)(=O)c2ccc(NC(=O)Nc3ccccc3F)cc2)n1 | 7.57% |
| CC(C)(CO)CNC1CCCN(C2Cc3ccccc3C2)C1 (stereo not shown) | 11.7% |
| CCOc1cc(NC(=S)NCC2CCCO2)c(OCC)cc1NC(=O)CC(C)C (stereo not shown) | 7.85% |
| COC(=O)[C@@H]1C[C@]2(Br)c3ccccc3N(S(=O)(=O)c3ccccc3)[C@@H]2N1C(=O)OC | 10.3% |
| CCOC(=O)c1c(C)[nH]c(C)c1C(=O)COC(=O)c1ccc(S(=O)(=O)C(F)F)cc1 | 10.1% |
| O=C(Nc1nccs1)C1CCN(S(=O)(=O)c2ccc(F)cc2)CC1 | 10.7% |
| CSC(=Nc1ccccc1)Nc1ccccc1 | 11.2% |
| CC(=O)c1c(OCC(=O)O)ccc2c(C)cc(=O)oc12 | -5.47% |
| CN(C)CCNC(=O)Cc1ccc([N+](=O)[O-])cc1 | 11% |
| Cc1cc(=O)[nH]c(Nc2cccc(F)c2)n1 | 9.97% |
| O=C1c2ccccc2NC(c2ccc(-c3cccc(F)c3)o2)N1O (stereo not shown) | 1.85% |
| CCC(C)(C)NC(=O)C(c1cccnc1)N(C(=O)c1csnn1)c1ccccc1 (stereo not shown) | 1.46% |
| Cn1cc(C(=O)N/N=C/c2cccc([N+](=O)[O-])c2)c2ccccc21 | 11.2% |
| O=C(O)CCCC(=O)Nc1ccccc1-n1ccnc1 | 10.3% |
| Cc1ccc(-n2c(C)nnc2SCC(=O)N2CCc3ccccc3C2)cc1 | -19.6% |

| SMILES | hERG current change (%, negative = inhibition) at 1uM |
| --- | --- |
| O=C(CCSCc1ccccc1Cl)NCc1cccs1 | 9.73% |
| Nc1ccncc1N | 11% |
| CC(=O)Nc1ccc(S(=O)(=O)NNC(=O)c2ccc3c(c2)OCO3)cc1 | 10.5% |
| CCOc1ccc(NC(=O)Cn2c(=O)oc3ccccc32)cc1 | 12.8% |
| COc1ccc(Cl)cc1-c1n[nH]c(=S)n1C | -7.48% |
| Cc1cc(-c2nnc(SCC(=O)Nc3ccc(F)cc3)n2N)n[nH]1 | 8.07% |
| O=C(O)C1CCCCC1C(=O)NCc1cn2ccccc2n1 (stereo not shown) | 15.8% |
| c1cnc2c(C3NCCc4c3[nH]c3ccccc43)cccc2c1 (stereo not shown) | -12.4% |
| CCOC(=O)C1CCCN(C(=O)Cn2cnc3sc(C)c(S(=O)(=O)N4CCOCC4)c3c2=O)C1 (stereo not shown) | 15.1% |
| CC1CC(C)CN(S(=O)(=O)c2ccc(NC(=O)CCNC(=O)c3ccc([N+](=O)[O-])cc3)cc2)C1 (stereo not shown) | 3.64% |
| Cc1cccc(CCNC(=O)C2CCC(=O)N(Cc3ccccc3F)C2)n1 (stereo not shown) | 13.5% |
| CC(CCc1ccccc1)NC(=O)CCC(=O)N1CCC(C(N)=O)CC1 (stereo not shown) | 13.6% |
| COc1ccc(N2CCN(C(CNC(=O)c3ccco3)c3ccco3)CC2)cc1 (stereo not shown) | 1.73% |
| Cc1noc(C(=O)Nc2ccc(F)c(Cl)c2)c1Cl | 14.6% |
| CCCCNc1ncnc2c1cnn2-c1ccccc1 | -4.95% |
| Cl.Oc1ccc(Nc2nc(N3CCCC3)c3ccccc3n2)cc1 | -62.7% |
| Cc1ccc(C(NC(=O)Nc2ccccn2)C(Cl)(Cl)Cl)cc1F (stereo not shown) | 15.4% |
| Cc1cc(C(=O)COC(=O)c2ccncc2)c(C)n1Cc1ccco1 | 12.5% |
| CC(=O)NC12CC3CC(C1)CC(C(=O)N1CCN(C(=O)c4ccco4)CC1)(C3)C2 | 7.16% |
| CCN(CC)CC(=O)Nc1cccc(S(=O)(=O)N2CCCC2)c1 | 6.42% |
| COC(=O)CN1C(=S)N(c2ccc(OC)cc2)C(=O)/C1=C/c1ccc(N2CCOCC2)cc1 | 8.78% |
| Cc1sc2nnn(CC(=O)N3CCN(C(=O)c4ccco4)CC3)c(=O)c2c1C | -5.92% |

| SMILES | hERG current change (%, negative = inhibition) at 1uM |
| --- | --- |
| OC(CN(c1ccccc1)c1ccccc1)Cn1cnc2ccccc21 (stereo not shown) | -12% |
| CCc1ccccc1N(C)S(=O)(=O)c1ccc2[nH]cc(C(=O)N3CCc4ccccc43)c(=O)c2c1 | 12.8% |
| CC1C2Cn3c(nc4ccccc43)C1N(C)O2 (stereo not shown) | 13.8% |
| COc1ccccc1C(=O)NC(=S)Nc1ccc(S(=O)(=O)N2CCN(C)CC2)cc1 | 3.49% |
| Cc1ccc(-c2nc(SCC(=O)c3c(N)n(C)c(=O)n(C)c3=O)n[nH]2)cc1 | -0.682% |
| COc1ccc(NC(=O)CSc2n[nH]c(-c3ccccc3)n2)cc1S(N)(=O)=O | 1.42% |
| Cc1nc(SCC(=O)NCc2ccco2)c2oc3ccccc3c2n1 | 3.07% |
| CC(C)C(NC(=O)OCc1ccccc1)C(=O)OCC(=O)N1CCCCC1 (stereo not shown) | 1.56% |
| CC1CCN(C(=O)c2ccc(CNc3c(N4CCCC4)c(=O)c3=O)cc2)CC1 | 2.56% |
| C/C(Cc1ccccc1)=N\NC(=O)CNC(=O)c1ccccc1 | 10.9% |
| CCOc1ccccc1NC(=O)C1CCC(CNc2c(N3CCCCC3)c(=O)c2=O)CC1 (stereo not shown) | 15.1% |
| CCOC(=O)C1(Cc2cccc(OC)c2)CCN(Cc2cccc3cnccc23)CC1 | 5.23% |
| COC(=O)C1=C(c2ccc(OC(F)(F)F)cc2)C[C@@H]2CC[C@H]1N2C(=O)NC1CC1 | 7.64% |
| CCc1nnc2c(NCCc3ccccc3)nc3ccccc3n12 | 8.92% |
| CC12CCC(C/C1=N\N=C1\NC(=O)/C(=C\c3ccc(Cl)cc3)S1)C2(C)C (stereo not shown) | 14.8% |
| Cl.O=C(O)C1=CCNCC1 | 17.1% |
| CCOC(=O)NC(=O)CSc1nnnn1-c1ccc(Cl)cc1 | -10.5% |
| Cc1ncc(CN2CCN(C(C)C)C(CCO)C2)s1 (stereo not shown) | 11.9% |
| O=C(C1=NN[C@@H]2C(=O)N(c3ccccc3C(F)(F)F)C(=O)[C@H]12)c1ccc2ccccc2n1 | 6.25% |
| COc1ccccc1NC(=O)c1cc2c(=O)n(C)c3ccccc3c2n1C | 9.36% |
| CCOc1ccc(S(=O)(=O)N2CCC(C(=O)NC3CCCCC3)CC2)cc1 | 6.05% |
| COc1ccc(CC(=O)Nc2ccc(OC)nc2)cc1 | 9.86% |

| SMILES | hERG current change (%, negative = inhibition) at 1uM |
| --- | --- |
| CCc1c(C)c(C#N)c2nc3ccccc3n2c1N1CCN(c2cc(C)ccn2)CC1 | 16.5% |
| O=C1NC(=S)NC(=O)C12C(c1ccc(F)cc1)NC(=S)NC2c1ccc(F)cc1 (stereo not shown) | 3.52% |
| O=C(CC12CC3CC(CC(C3)C1)C2)NC(=S)NCc1ccccc1 | -0.571% |
| CCc1ccc(-c2cc3c(=O)n(CC(=O)NCCCN4CCN(CC)CC4)nc(C)n3n2)cc1 | 2.97% |
| Cc1ccc(Cl)c(OCC(=O)Nc2cc(S(=O)(=O)N3CCOCC3)ccc2N2CCCC2)c1 | 3.82% |
| O=C(Nc1c2c(nn1-c1ccc(F)cc1)CS(=O)C2)c1ccco1 (stereo not shown) | -7.47% |
| CC(C)N1CCN(Cc2ccc(OC3CCCC3)cc2)CC1CCO (stereo not shown) | 2.54% |
| Cc1cc(OC(=O)c2cccc(Cl)c2)c([N+](=O)[O-])c(=O)[nH]1 | 14.2% |
| Cc1cc(NC(=O)CCC(=O)N(c2ccccc2)C(C(=O)NC2CCCC2)c2ccc(F)cc2)no1 (stereo not shown) | 19.5% |
| CC(C)OC(=O)CSc1nnc(-c2cccnc2)n1N | 2.3% |
| COc1ccc(-n2c(C)cc(C(=O)COC(=O)Cc3n[nH]c(=O)c4ccccc34)c2C)cc1 | 10.3% |
| O=C1CN(C(=O)COc2c(F)c(F)cc(F)c2F)c2ccccc2N1 | 7% |
| CC(C)(CC(=O)O)CC(=O)N1CCCN(c2nc3ccc(Cl)cc3s2)CC1 | 10.5% |
| COc1cc(NC(=S)N2CCOCC2)c(OC)cc1Cl | 12.6% |
| CCNC(=S)N/N=C/c1sccc1C | 9.94% |
| COCCN(CCOC)C(=O)CSc1ccc(S(=O)(=O)N2CCN(C)CC2)cn1 | 11.9% |
| CCOC(=O)/C(C#N)=C\C1=C(N2CCCC2)CC(C)(C)OC1 | 7.44% |
| O=C(NCCc1c[nH]c2ccccc12)/C(=C\c1cccnc1)NC(=O)c1cccs1 | 9.4% |
| CN1CCC(N(C)c2nc(-c3ccccc3)nc3ccccc23)CC1 | -49.4% |
| CCN(CC(=O)Nc1ccccc1C(F)(F)F)C(=O)c1cc(-c2ccccc2)nn1-c1ccccc1 | 11.7% |
| CCN(CC)CCNC(=O)c1ccc(NC(=O)Cc2cccc3ccccc23)cc1 | 4.37% |
| CN(C(=O)CCc1nnc(-c2ccc(-c3ccccc3)cc2)o1)C1CCOCC1 | 2.58% |

Reference: paper PMC4336329 (PLoS ONE, 2015)
